# From paper PMC11995724, “Antibiotic target discovery by integrated phenotypic and activity-based profiling of electrophilic fragments” (Cell chemical biology, 2025)
# Out of some 3,200 compounds screened, about 75 (2%) showed an effect of 50% or more. Some of the results follow.
# System: T1, S. aureus MSSA476
# T1 construct: MSSA476
# Parameters: species or system S. aureus MSSA476 (TSB) or V. cholerae SAD30 (LB); 384-well bacterial growth screen at 25 uM, OD600 relative to DMSO control
# Conditions: relative growth, OD600, TSB; 25 µM; inhibitor
row,SMILES,% of control remaining
1,"CC(Cl)C(=O)Nc1ccccc1[N+](=O)[O-] (centres unmarked) [4-G18, 2-chloro-N-(2-nitrophenyl)propanamide]",124.631%
2,"N#CC(=Cc1cccc(Cl)c1Cl)C(=O)NCc1ccco1 [8-P04, 2-cyano-3-(2,3-dichlorophenyl)-N-[(furan-2-yl)methyl]prop-2-enamide]",92.6141%
3,"CCN(C(=O)C(C)Cl)c1ccccc1 (centres unmarked) [4-P16, 2-chloro-N-ethyl-N-phenylpropanamide]",96.0457%
4,"CN(C)S(=O)(=O)c1ccc(NC(=O)CCl)cc1 [5-J11, 2-chloro-N-[4-(dimethylsulfamoyl)phenyl]acetamide]",107.468%
5,"N#CC(=Cc1cccc(O)c1)C(=O)Nc1ccc(N2CCOCC2)cc1 [8-I14, 2-cyano-3-(3-hydroxyphenyl)-N-[4-(morpholin-4-yl)phenyl]prop-2-enamide]",91.9502%
6,"CC(C)C(NC(=O)CCl)c1ccc2c(c1)OCCCO2 (centres unmarked) [4-N14, 2-chloro-N-[1-(3,4-dihydro-2H-1,5-benzodioxepin-7-yl)-2-methylpropyl]acetamide]",90.7099%
7,"C=CC(=O)NCC1CCN(Cc2ccccc2)CC1C (centres unmarked) [3-G20, N-[(1-benzyl-3-methylpiperidin-4-yl)methyl]prop-2-enamide]",87.0701%
8,"C=CC(=O)N(C)CC(=O)N1CCC(CN2CCCCC2=O)CC1 [2-F16, N-methyl-N-(2-oxo-2-{4-[(2-oxopiperidin-1-yl)methyl]piperidin-1-yl}ethyl)prop-2-enamide]",94.3429%
9,"O=C1C=CC(=O)N1CCc1ccc(F)cc1 [10-C21, 1-[2-(4-fluorophenyl)ethyl]-2,5-dihydro-1H-pyrrole-2,5-dione]",70.9375%
10,"CC(Cl)C(=O)N1CCc2c(nnn2C)C1 (centres unmarked) [7-G22, 2-chloro-1-{1-methyl-1H,4H,5H,6H,7H-[1,2,3]triazolo[4,5-c]pyridin-5-yl}propan-1-one]",75.9812%
11,"O=C(CCl)Nc1ccc(Cl)cc1F [4-E03, 2-chloro-N-(4-chloro-2-fluorophenyl)acetamide]",75.0834%
12,"O=C(CCl)N1CCC(C2CCCN(C(=O)C(F)(F)F)C2)CC1 (centres unmarked) [5-E20, 1-[1'-(2-chloroacetyl)-[3,4'-bipiperidin]-1-yl]-2,2,2-trifluoroethan-1-one]",105.647%
13,"CSc1ccc(C=C(C#N)C(=O)Nc2cccc(Cl)c2C)cc1 [8-N11, N-(3-chloro-2-methylphenyl)-2-cyano-3-[4-(methylsulfanyl)phenyl]prop-2-enamide]",130.788%
14,"CC1CC(C)CN(S(=O)(=O)c2ccc(NC(=O)CCl)cc2)C1 (centres unmarked) [4-K16, 2-chloro-N-{4-[(3,5-dimethylpiperidin-1-yl)sulfonyl]phenyl}acetamide]",97.9514%
15,"CC(c1ccc(C(F)(F)F)c(Cl)c1)N(C)C(=O)CCl (centres unmarked) [7-F14, 2-chloro-N-{1-[3-chloro-4-(trifluoromethyl)phenyl]ethyl}-N-methylacetamide]",6.593%
16,"O=C(CCl)N(Cc1ccccc1)Cc1ccco1 [5-F22, N-benzyl-2-chloro-N-[(furan-2-yl)methyl]acetamide]",112.204%
17,"C=CC(=O)N(Cc1cn(C)nc1CC)C1CCCCCC1 [1-H09, N-cycloheptyl-N-[(3-ethyl-1-methyl-1H-pyrazol-4-yl)methyl]prop-2-enamide]",108.659%
18,"C=CC(=O)NC1CC(C)Cc2cc(OC)ccc21 (centres unmarked) [3-L17, N-(6-methoxy-3-methyl-1,2,3,4-tetrahydronaphthalen-1-yl)prop-2-enamide]",79.4079%
19,"CN(C(=O)c1ccccc1)C1CC2CCC(C1)N2C(=O)CCl (centres unmarked) [5-J03, N-[8-(2-chloroacetyl)-8-azabicyclo[3.2.1]octan-3-yl]-N-methylbenzamide]",104.189%
20,"N#CC(C(=O)CCl)c1nncn1-c1ccccc1 (centres unmarked) [10-L14, 4-chloro-3-oxo-2-(4-phenyl-4H-1,2,4-triazol-3-yl)butanenitrile]",116.25%
21,"CC(C)C(=O)Nc1ccc(C(=O)CCl)cc1 [10-D04, N-[4-(2-chloroacetyl)phenyl]-2-methylpropanamide]",4.6875%
22,"C=CC(=O)NC1(C(N)=O)Cc2ccccc2C1 [2-D15, 2-(prop-2-enamido)-2,3-dihydro-1H-indene-2-carboxamide]",107.224%
23,"C=CC(=O)N1CCC(C(=O)N(C)Cc2ccon2)CC1 [2-I14, N-methyl-N-[(1,2-oxazol-3-yl)methyl]-1-(prop-2-enoyl)piperidine-4-carboxamide]",113.142%
24,"C=CCNC(=O)C(C#N)=Cc1ccccc1OC [9-H05, 2-cyano-3-(2-methoxyphenyl)-N-(prop-2-en-1-yl)prop-2-enamide]",96.1798%

row,SMILES,% of control remaining
1,"Cc1cc(C)n(C2CN(C(=O)C(C)Cl)C2)n1 (centres unmarked) [7-F15, 2-chloro-1-[3-(3,5-dimethyl-1H-pyrazol-1-yl)azetidin-1-yl]propan-1-one]",104.239%
2,"C=CC(=O)Nc1c(OC)nc(Cl)nc1OC [1-B14, N-(2-chloro-4,6-dimethoxypyrimidin-5-yl)prop-2-enamide]",133.978%
3,"Cc1ccc(F)cc1NC(=O)CCl [4-O03, 2-chloro-N-(5-fluoro-2-methylphenyl)acetamide]",84.2306%
4,"CC(Cl)C(=O)NC(C)c1ccns1 (centres unmarked) [6-P12, 2-chloro-N-[1-(1,2-thiazol-5-yl)ethyl]propanamide]",84.3415%
5,"O=C(CCl)Nc1cc(Cl)c(Cl)cc1Cl [4-B06, 2-chloro-N-(2,4,5-trichlorophenyl)acetamide]",85.7551%
6,"COc1ccc(C(=O)CCl)cc1Cl [10-D10, 2-chloro-1-(3-chloro-4-methoxyphenyl)ethan-1-one]",-0.3125%
7,"Cl.O=C(CCl)Nc1cccc(CN2CCSCC2)c1 [5-J14, 2-chloro-N-{3-[(thiomorpholin-4-yl)methyl]phenyl}acetamide hydrochloride]",89.2532%
8,"O=C(CCl)N[C@H]1CCCc2ccccc21 [6-I21, 2-chloro-N-[(1S)-1,2,3,4-tetrahydronaphthalen-1-yl]acetamide]",83.3171%
9,"C=CC(=O)N(Cc1ccc(F)c(C)c1)CC1(O)CCSCC1 [2-E13, N-[(4-fluoro-3-methylphenyl)methyl]-N-[(4-hydroxythian-4-yl)methyl]prop-2-enamide]",129.504%
10,"CN(CC(=O)Nc1c(Cl)cccc1Cl)C(=O)CCl [6-M05, 2-chloro-N-{[(2,6-dichlorophenyl)carbamoyl]methyl}-N-methylacetamide]",97.3171%
11,"C=CC(=O)N1CCC(C(=O)N(C)C(C)CC(N)=O)CC1 (centres unmarked) [2-K20, 3-{N-methyl-1-[1-(prop-2-enoyl)piperidin-4-yl]formamido}butanamide]",98.8686%
12,"CC(C)n1ccnc1C(=O)CCl [10-H10, 2-chloro-1-[1-(propan-2-yl)-1H-imidazol-2-yl]ethan-1-one]",2.1875%
13,"C=CC(=O)NCc1ccccc1S(=O)(=O)NC(C)(C)C [1-J03, N-{[2-(tert-butylsulfamoyl)phenyl]methyl}prop-2-enamide]",111.121%
14,"CC(Cl)C(=O)NCC(C)c1nncn1C (centres unmarked) [7-A07, 2-chloro-N-[2-(4-methyl-4H-1,2,4-triazol-3-yl)propyl]propanamide]",92.3077%
15,"Cc1ccsc1C=C(C#N)C(=O)Nc1c(Cl)cccc1Cl [8-D22, 2-cyano-N-(2,6-dichlorophenyl)-3-(3-methylthiophen-2-yl)prop-2-enamide]",73.6929%
16,"C=CC(=O)NCCc1csc(-c2ccccc2)n1 [1-A13, N-[2-(2-phenyl-1,3-thiazol-4-yl)ethyl]prop-2-enamide]",105.495%
17,"Cc1cc(C)c(NC(=O)C(C#N)=Cc2ccc(C)o2)c(C)c1 [9-I17, 2-cyano-3-(5-methylfuran-2-yl)-N-(2,4,6-trimethylphenyl)prop-2-enamide]",100.974%
18,"O=C1C=CC(=O)N1CCCCO [10-K07, 1-(4-hydroxybutyl)-2,5-dihydro-1H-pyrrole-2,5-dione]",123.75%
19,"C=CC(=O)N(Cc1cn2ccccc2n1)C1CC1 [3-J21, N-cyclopropyl-N-({imidazo[1,2-a]pyridin-2-yl}methyl)prop-2-enamide]",100.305%
20,"COc1cc(C=C(C#N)C(=O)NC2CC2)cc(OC)c1O [9-O19, 2-cyano-N-cyclopropyl-3-(4-hydroxy-3,5-dimethoxyphenyl)prop-2-enamide]",119.85%
21,"O=CN1CCc2cc(C(=O)CCl)ccc21 [10-K20, 5-(2-chloroacetyl)-2,3-dihydro-1H-indole-1-carbaldehyde]",102.813%
22,"Cc1cc(C(=O)CCl)c(C)n1-c1ccc(Cl)cc1 [10-H18, 2-chloro-1-[1-(4-chlorophenyl)-2,5-dimethyl-1H-pyrrol-3-yl]ethan-1-one]",-0.625%
23,"CC(=O)N1CCC(NC(=O)C(C)Cl)c2ccc(F)cc2C1 (centres unmarked) [7-I16, N-(2-acetyl-8-fluoro-2,3,4,5-tetrahydro-1H-2-benzazepin-5-yl)-2-chloropropanamide]",108.006%
